Some test systems named below: MZ2-MEL; MeWo; RPMI7951; RVH-421; SkMel28; SkMel2; SkMel30; UACC62; WM115; WM1716; WM1745; WM3526; WM3619; WM451Lu; SkMel5; UACC257.
Common to all, as to test: cell count relative to DMSO control; melanoma cells; higher = more viable cells
Holding throughout (settings): library dose: low library concentration; 72 h

The structures appear in SMILES notation. The list shows a part of the results. Many values rest on one well or one pass, so single values are uncertain.
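Also: cell number obtained by counting DAPI-stained nuclei in high-throughput microscope images with image analysis software, screen run in 1,536-well plates.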

`CC(=O)O[C@@]12CO[C@@H]1C[C@H](O)[C@@]1(C)C(=O)[C@H](O)C3=C(C)[C@@H](OC(=O)[C@H](O)[C@@H](NC(=O)OC(C)(C)C)c4ccccc4)C[C@@](O)([C@@H](OC(=O)c4ccccc4)[C@H]21)C3(C)C` [Docetaxel] + CN(c1ncccc1CNc1nc(Nc2ccc3c(c2)CC(=O)N3)ncc1C(F)(F)F)S(C)(=O)=O [PF562271] (first compound 0.0001 µM, partner dose 0.08 µM): the cell count in the test with MZ2-MEL is 40.9%; in the test with MeWo, 36.1%; in the test on RPMI7951, 24.8%; in the test with RVH-421, 46.1%; in the test on SkMel28 it was 27.3%; with SkMel2, 39.9%. The cell count was 27.3% in the test with SkMel30; 37.5% in the test with UACC62; 46.8% in the test with WM115; 26.9% in the test with WM1716; 37.8% with WM1745; 40.6% in the test on WM3526. The cell count with WM3619 is 71.2%; in the test with WM451Lu, 43.2%.
Consider `CO[C@H]1C[C@@H]2CC[C@@H](C)[C@@](O)(O2)C(=O)C(=O)N2CCCC[C@H]2C(=O)O[C@H]([C@H](C)C[C@@H]2CC[C@@H](OCCO)[C@H](OC)C2)CC(=O)[C@H](C)/C=C(\C)[C@@H](O)[C@@H](OC)C(=O)[C@H](C)C[C@H](C)/C=C/C=C/C=C/1C` [everolimus] + COc1ccc2c(c1)CCC1C2CCC2(C)C(NCCCCCCN3C(=O)C=CC3=O)CCC12 [U73122] (first compound 0.02 µM, partner dose 0.4 µM), for which the cell count was determined as 73.1% with MZ2-MEL; 69.1% in the test on MeWo; 76.8% in the test with RPMI7951; 72.3% with RVH-421; 50.9% in the test with SkMel28; 58.6% with SkMel30. Also, the cell count came to 101% in the test on SkMel5; 96.6% with UACC257; 59.9% in the test on UACC62; 85.6% with WM115; 66.8% in the test on WM1716; 92.7% in the test with WM1745. Also, the cell count in the test with WM3526 worked out at 50%; in the test on WM3619, 48.6%; with WM451Lu, 79.7%.
As for `CO[C@H]1C[C@@H]2CC[C@@H](C)[C@@](O)(O2)C(=O)C(=O)N2CCCC[C@H]2C(=O)O[C@H]([C@H](C)C[C@@H]2CC[C@@H](OCCO)[C@H](OC)C2)CC(=O)[C@H](C)/C=C(\C)[C@@H](O)[C@@H](OC)C(=O)[C@H](C)C[C@H](C)/C=C/C=C/C=C/1C` [everolimus] + CCCCCCCCCCCC1=C(O)C(=O)C=C(O)C1=O [Embelin] (first compound 0.02 µM, partner dose 1.2 µM), the cell count stood at 87.4% in the test on MZ2-MEL; 84.7% in the test with MeWo; 84.6% with RPMI7951; 79.9% in the test on RVH-421; 54.4% in the test on SkMel28; 58.5% in the test with SkMel30. The cell count with SkMel5 amounted to 120%; in the test on UACC257, 75.2%; with UACC62 it was 61.9%; in the test on WM115, 79.1%; with WM1716, 91.6%; in the test on WM1745, 88.1%. Besides, the cell count in the test on WM3526 turned out to be 64.6%; in the test on WM3619, 67.8%; with WM451Lu, 79.6%.
On to `Nc1ccn([C@@H]2O[C@H](CO)[C@@H](O)C2(F)F)c(=O)n1` [gemcitabine] + Nc1cccc2c1CN(C1CCC(=O)NC1=O)C2=O [lenalidomide] (first compound 0.0004 µM, partner dose 1 µM), for which the cell count with MZ2-MEL turned out to be 95.1%; in the test with MeWo, 94.4%; in the test on RPMI7951 it was 91.5%; in the test with RVH-421, 86.1%; in the test on SkMel28 it was 96.4%; in the test with SkMel2 it was 100%. The cell count in the test on SkMel30 was found to be 105%; with UACC62, 84.3%; in the test with WM115 it was 89.4%; in the test with WM1716, 85.9%; in the test with WM1745 it was 69.4%; in the test with WM3526, 84.2%. Moreover, the figures for the cell count with WM3619 and in the test with WM451Lu were 64.4% and 117%, respectively.
As for `CO[C@H]1C[C@@H]2CC[C@@H](C)[C@@](O)(O2)C(=O)C(=O)N2CCCC[C@H]2C(=O)O[C@H]([C@H](C)C[C@@H]2CC[C@@H](OCCO)[C@H](OC)C2)CC(=O)[C@H](C)/C=C(\C)[C@@H](O)[C@@H](OC)C(=O)[C@H](C)C[C@H](C)/C=C/C=C/C=C/1C` [everolimus] + CCN(CC)CCCCNc1ncc2cc(-c3cc(OC)cc(OC)c3)c(NC(=O)NC(C)(C)C)nc2n1 [PD173074] (first compound 0.02 µM, partner dose 0.1 µM), the cell count in the test on MZ2-MEL was 74.8%; in the test with MeWo, 76.7%; with RPMI7951 it was 94%; in the test with RVH-421 it was 93.4%; in the test with SkMel28, 58.3%; in the test with SkMel30 it was 79.2%. Also, the cell count was determined as 129% in the test on SkMel5; 66.8% in the test with UACC257; 57.9% with UACC62; 76.5% in the test with WM115; 77.6% with WM1716; 93.6% with WM1745. In addition, the cell count worked out at 71.2% in the test on WM3526, 75.1% in the test on WM3619 and 74.5% in the test with WM451Lu.
As for `CO[C@H]1C[C@@H]2CC[C@@H](C)[C@@](O)(O2)C(=O)C(=O)N2CCCC[C@H]2C(=O)O[C@H]([C@H](C)C[C@@H]2CC[C@@H](OCCO)[C@H](OC)C2)CC(=O)[C@H](C)/C=C(\C)[C@@H](O)[C@@H](OC)C(=O)[C@H](C)C[C@H](C)/C=C/C=C/C=C/1C` [everolimus] + O=c1cc(-c2cccc3c2Sc2ccccc2S3)oc(N2CCOCC2)c1 [KU55933] (first compound 0.02 µM, partner dose 1 µM), the cell count with MZ2-MEL turned out to be 84%; with MeWo, 72.6%; in the test with RPMI7951, 63%; in the test on RVH-421, 85.7%; in the test on SkMel28, 65.2%; in the test with SkMel30 it was 73.7%. The cell count in the test on SkMel5 was determined as 101%; in the test on UACC257, 81.3%; with UACC62, 75.7%; in the test on WM115, 88%; in the test with WM1716 it was 95.8%; with WM1745 it was 88.7%. The results for the cell count with WM3526, with WM3619 and with WM451Lu were 74.3%, 85.2% and 74.4%, respectively.
In the case of `Nc1ncn([C@H]2C[C@H](O)[C@@H](CO)O2)c(=O)n1` [decitabine] + CC(=O)c1c(C)c2cnc(Nc3ccc(N4CCNCC4)cn3)nc2n(C2CCCC2)c1=O [palbociclib] (first compound 0.1 µM, partner dose 0.04 µM), the cell count in the test on MZ2-MEL was 81.1%; in the test on MeWo, 78.5%; in the test on RPMI7951, 80.9%; in the test with RVH-421, 69.4%; with SkMel28, 75.1%; in the test on SkMel2, 85.9%. In addition, the cell count with SkMel30 stood at 79%; with UACC62 it was 65.7%; in the test on WM115 it was 73.1%; in the test with WM1716 it was 62.8%; with WM1745, 75.5%; in the test on WM3526, 56.2%. In addition, the cell count with WM3619 worked out at 81.7%; with WM451Lu it was 83.2%.
Turning to `CO[C@H]1C[C@@H]2CC[C@@H](C)[C@@](O)(O2)C(=O)C(=O)N2CCCC[C@H]2C(=O)O[C@H]([C@H](C)C[C@@H]2CC[C@@H](OCCO)[C@H](OC)C2)CC(=O)[C@H](C)/C=C(\C)[C@@H](O)[C@@H](OC)C(=O)[C@H](C)C[C@H](C)/C=C/C=C/C=C/1C` [everolimus] + O=C1NC(=O)/C(=C/c2ccc(-c3ccc(F)cc3O)o2)S1 [AS252424] (first compound 0.02 µM, partner dose 1 µM), the cell count was determined as 78.6% in the test on MZ2-MEL; 63.8% in the test on MeWo; 67.6% with RPMI7951; 90% with RVH-421; 56.4% in the test with SkMel28; 59% in the test with SkMel30. In addition, the cell count in the test with SkMel5 amounted to 116%; with UACC257, 56.1%; in the test with UACC62, 65%; in the test on WM115, 97.7%; in the test on WM1716, 74.9%; with WM1745 it was 86%. Further, the figures for the cell count in the test on WM3526, in the test with WM3619 and in the test with WM451Lu were 62.7%, 67.9% and 69.7%, respectively.
With `CO[C@H]1C[C@@H]2CC[C@@H](C)[C@@](O)(O2)C(=O)C(=O)N2CCCC[C@H]2C(=O)O[C@H]([C@H](C)C[C@@H]2CC[C@@H](OCCO)[C@H](OC)C2)CC(=O)[C@H](C)/C=C(\C)[C@@H](O)[C@@H](OC)C(=O)[C@H](C)C[C@H](C)/C=C/C=C/C=C/1C` [everolimus] + Cn1cncc1[C@@](N)(c1ccc(Cl)cc1)c1ccc2c(c1)c(-c1cccc(Cl)c1)cc(=O)n2C [tipifarnib] (first compound 0.02 µM, partner dose 0.01 µM), the cell count with MZ2-MEL turned out to be 69.9%; in the test on MeWo it was 68.7%; in the test with RPMI7951, 79.6%; in the test with RVH-421 it was 69.1%; in the test with SkMel28, 62.4%; with SkMel30 it was 62%. Moreover, the cell count with SkMel5 is 111%; in the test on UACC257, 60.2%; in the test on UACC62, 58.3%; in the test with WM115 it was 78.6%; in the test with WM1716, 75.4%; with WM1745, 87.3%. Moreover, the cell count with WM3526 is 75.2%; with WM3619, 70.7%; with WM451Lu, 75.9%.

Source of the values: the supplement of paper PMC4604168 (melanoma cell lines).
